Whole data set: some 33,000 sequences, median “E-score (-0.5 to 0.5)” near -0.017, cut for the highest 2% near 0.3. Some of the results follow.
These sequences were tested against T1, Sut1 (UniProt P53032) (assay: PBM E-score (8-mer binding enrichment) (E-score (-0.5 to 0.5)); higher = stronger / more preferred TF binding; most listed sequences are background and not binding sites). Settings: protein concentration: 200 nM; construct: GST-full length.
T1 sequence: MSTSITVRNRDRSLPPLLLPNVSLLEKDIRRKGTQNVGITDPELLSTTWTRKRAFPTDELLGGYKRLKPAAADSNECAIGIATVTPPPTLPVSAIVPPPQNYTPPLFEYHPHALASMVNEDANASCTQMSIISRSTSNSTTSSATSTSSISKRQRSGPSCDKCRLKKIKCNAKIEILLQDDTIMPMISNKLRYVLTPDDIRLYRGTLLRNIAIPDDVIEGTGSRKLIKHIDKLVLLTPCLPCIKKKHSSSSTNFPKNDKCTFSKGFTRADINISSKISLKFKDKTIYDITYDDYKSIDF
Outline: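 E-scores (a modified Wilcoxon-Mann-Whitney statistic) were assigned by the Universal PBM Analysis Suite to every ungapped eight-base word pooled with its reverse complement. The input came from universal all-10-mer Agilent arrays made double-stranded by primer extension and probed with GST-tagged yeast transcription factors at about 100-200 nM. Fluorescent anti-GST detected bound protein, and masliner normalised the scans.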

| Sequence | PBM E-score |
| --- | --- |
| GATCGACC | -0.00202 |
| ACCCGACC | -0.117 |
| CCGCTTGA | -0.162 |
| AGCGATAT | 0.107 |
| GCCCTCCC | -0.116 |
| CCAATTGA | -0.0324 |
| CAAAATAC | 0.243 |
| GTTATTCA | 0.243 |
| ATGCACTA | 0.0604 |
| TAAGTGAA | 0.242 |
| GGCAAGAC | -0.159 |
| CGCCACCC | -0.312 |
| GACCCAAA | 0.0932 |
| ATCACCTG | -0.277 |
| ACTCTGCA | 0.00784 |
| CGTACAGC | -0.101 |
| CAGATCGG | 0.0645 |
| GCGAGCCA | -0.192 |
| CCTAGATC | -0.213 |
| GCTAAAGC | -0.0213 |
| ATTATTGG | 0.187 |
| ATGGACAT | 0.0377 |
| CCTCTTTA | -0.024 |
| GTAGTGTA | -0.00167 |
| ACCATTTC | 0.1 |

| Sequence | PBM E-score |
| --- | --- |
| CCCGTAAG | -0.0501 |
| AACCCATC | -0.178 |
| ACATACGC | -0.166 |
| ATGATACA | 0.21 |
| GGCGTAAC | -0.216 |
| AAATACTT | 0.246 |
| ACTGAATA | 0.116 |
| AACCCGCT | -0.24 |
| CTTAGGTA | -0.0114 |
| CGAGGTAA | -0.0696 |
| TCCGGCAA | 0.33 |
| AGAGACCA | -0.0757 |
| AACGACTA | 0.138 |
| AATAATGG | 0.201 |
| TAACTAGA | 0.234 |
| TGTAAGAA | 0.287 |
| CAATCACG | 0.0021 |
| ATAAACAG | 0.192 |
| GGTAGATA | 0.205 |
| CGGTTATC | 0.137 |
| GCTACAGC | -0.15 |
| CACACAAC | -0.0815 |
| ACTGCCGA | 0.052 |
| AAACAGTT | 0.152 |
| GATTGGCC | -0.084 |

| Sequence | PBM E-score |
| --- | --- |
| GCCCCCCA | -0.424 |
| ATGCTGCA | -0.256 |
| ACTTTTCT | 0.0248 |
| AAGACTCA | -0.283 |
| AGTTGCAA | 0.123 |
| ACGCACTC | 0.0935 |
| AAACTTGA | 0.0615 |
| AGTAGCAT | 0.0369 |
| AACGTGTG | -0.203 |
| ATGCTAAG | -0.107 |
| AAGAGCCT | -0.166 |
| CTCCAATC | -0.115 |
| ATATTGTC | 0.268 |
| CAGACACG | -0.214 |
| GCCCAACC | -0.15 |
| TCTTAAGA | 0.148 |
| CTCGGAGA | 0.419 |
| AAATCGGG | 0.0832 |
| ATATCTAA | 0.159 |
| ACGCTCAC | 0.0304 |
| GTCAGATA | -0.106 |
| GATACAGC | -0.0182 |
| CTGATTGC | 0.023 |
| GAACTACC | -0.0691 |
| ATCATAGC | 0.0764 |

| Sequence | PBM E-score |
| --- | --- |
| AGAACAGC | -0.0298 |
| CTAATCTA | 0.144 |
| CTGCTGAC | -0.157 |
| GAACACGC | 0.0145 |
| GTCCTAGA | -0.141 |
| AAACCATG | 0.0875 |
| TGACGTCA | 0.106 |
| ACCTTTCA | -0.0164 |
| ACGCGGCG | -0.0144 |
| GACGATCC | 0.0475 |
| CTATGGGA | -0.139 |
| AAGTGCCC | -0.156 |
| CGAAGACC | 0.0715 |
| CTTTGAGC | -0.252 |
| ATCCCCGG | 0.261 |
| CTCTTAAG | 0.0727 |
| AGTCGCCA | -0.232 |
| CATCGTCG | -0.136 |
| ACTGCACA | 0.00582 |
| ATGCCCAT | -0.157 |
| GGGAAGAA | -0.0366 |
| ATAGGTCG | -0.0667 |
| ACACAAGG | 0.0527 |
| ATCCTGCG | -0.204 |
| CATTATTC | 0.231 |

| Sequence | PBM E-score |
| --- | --- |
| TCCTTCCA | -0.243 |
| GCACCCGC | -0.108 |
| CTCACCGC | -0.0633 |
| CGAATCGC | -0.224 |
| AGGGTGAT | -0.0489 |
| AGACAGCT | -0.176 |
| AGTTAATA | 0.331 |
| CACGAATG | -0.0688 |
| CATGACCG | -0.233 |
| CTTGAGAC | -0.212 |
| ATAGGTAA | 0.0939 |
| AGACCTCT | -0.183 |
| ACGCCTTC | 0.0371 |
| CGCAAAAC | 0.111 |
| ACTGCACT | 0.0273 |
| ACCGGCGT | -0.155 |
| ATGAATGC | 0.0525 |
| TCGCTACA | -0.341 |
| CTCATAAC | -0.0626 |
| ATGACAAT | 0.198 |
| GAATGCTC | -0.0221 |
| CGCCTCTC | -0.324 |
| CAGGCTGA | -0.248 |
| CCACCAAC | 0.0116 |
| TAAAGACA | -0.033 |

| Sequence | PBM E-score |
| --- | --- |
| ATCACAGG | -0.203 |
| ACATGAAC | 0.0435 |
| TGCTCCAA | -0.015 |
| ACGAGCTG | -0.00685 |
| CCATAGGC | -0.307 |
| CTTCTGAC | -0.0968 |
| CAAGCGCA | 0.0857 |
| GTTCTGCA | -0.0955 |
| ATACGTAG | -0.0444 |
| GAGCATAA | 0.135 |
| AAATTTAA | 0.318 |
| AATTTCTG | 0.187 |
| ACTCAGCC | -0.258 |
| CCGTGCTA | 0.011 |
| GTATTCAC | 0.253 |
| TCTCGTAA | 0.0822 |
| ATGCTACG | -0.161 |
| AAACGTAC | 0.0251 |
| CCCAGTCG | -0.115 |
| CTCTGAAC | -0.234 |
| CGGATGAC | 0.0105 |
| CGCATTGA | -0.0303 |
| ATTCAGGG | -0.155 |
| CGCTTGAC | -0.0992 |
| CGTATTAC | 0.0591 |

| Sequence | PBM E-score |
| --- | --- |
| GAGTTTAA | 0.189 |
| GACCCTAA | -0.0171 |
| ACTTCTTC | 0.22 |
| GAGCAAGC | -0.194 |
| AACTACAG | 0.047 |
| AAGGTCAC | -0.254 |
| CCTGCTGA | -0.083 |
| CCCCTCTA | -0.23 |
| TCAGAAAA | 0.0444 |
| AGGGGGAA | -0.101 |
| AATCTAGT | 0.178 |
| CGTTCACA | 0.0405 |
| CTCAGCAG | -0.228 |
| AAGGTTGA | 0.0981 |
| CCGAACAA | 0.267 |
| CACCAGGA | -0.152 |
| TACGGTGA | 0.0809 |
| CGCCCTCC | -0.232 |
| AGCGGGCC | -0.119 |
| CTCTGCCC | -0.143 |
| AAGGACTA | -0.0436 |
| GCCAGGGC | -0.417 |

— the supplement of paper PMC3334620
